# Experimental data reported in the supplement of paper PMC3334620.
# In all, about 33,000 sequences were measured (“E-score (-0.5 to 0.5)”: median about -0.041, highest 2% from about 0.37 on). Some of the results follow.
# Molecular target: T1, Ecm22 (UniProt Q05958)
# T1 sequence: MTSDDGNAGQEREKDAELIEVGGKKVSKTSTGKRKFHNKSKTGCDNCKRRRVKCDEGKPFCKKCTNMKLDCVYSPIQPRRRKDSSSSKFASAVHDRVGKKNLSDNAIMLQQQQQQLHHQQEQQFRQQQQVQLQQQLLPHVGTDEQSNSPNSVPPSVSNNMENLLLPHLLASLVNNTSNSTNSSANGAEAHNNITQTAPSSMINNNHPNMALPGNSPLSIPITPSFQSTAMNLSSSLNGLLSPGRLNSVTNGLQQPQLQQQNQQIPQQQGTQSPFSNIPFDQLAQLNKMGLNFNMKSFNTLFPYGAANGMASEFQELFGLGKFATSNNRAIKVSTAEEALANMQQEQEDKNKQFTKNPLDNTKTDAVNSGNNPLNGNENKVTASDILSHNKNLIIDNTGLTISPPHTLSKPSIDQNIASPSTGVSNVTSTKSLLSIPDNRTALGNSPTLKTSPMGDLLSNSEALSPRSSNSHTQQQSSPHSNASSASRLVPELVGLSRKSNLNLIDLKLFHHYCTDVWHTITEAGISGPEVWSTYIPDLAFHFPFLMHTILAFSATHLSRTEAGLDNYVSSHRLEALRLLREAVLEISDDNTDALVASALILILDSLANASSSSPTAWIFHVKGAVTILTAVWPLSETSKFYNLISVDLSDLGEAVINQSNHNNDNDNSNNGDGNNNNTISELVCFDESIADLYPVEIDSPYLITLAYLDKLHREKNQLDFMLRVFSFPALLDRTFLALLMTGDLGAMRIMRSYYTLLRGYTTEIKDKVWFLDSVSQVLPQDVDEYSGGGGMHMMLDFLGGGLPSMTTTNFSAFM
# Assay: PBM E-score (8-mer binding enrichment) (E-score (-0.5 to 0.5)); higher = stronger / more preferred TF binding; most listed sequences are background and not binding sites
# Details: protein concentration: 200 nM; construct: GST-full length
# Procedure, shortened: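 Yeast transcription factors, full-length or as DNA-binding domains, were expressed with a GST tag using PURExpress in vitro transcription/translation. At about 100-200 nM they were applied to universal all-10-mer Agilent arrays, double-stranded by primer extension on fresh or once-stripped slides. Fluorescent anti-GST detected bound protein, and masliner normalised the scans. E-scores for ungapped eight-base words, pooled with reverse complements, came from the Universal PBM Analysis Suite.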
row,Sequence,PBM E-score
1,ACCGGGCA,-0.109
2,ATGCCTCG,0.175
3,ACCGACTA,-0.0152
4,AGCTGCAA,-0.204
5,CGATTTGA,0.166
6,GGGTGGAC,-0.17
7,GACCCCGA,-0.128
8,GAACTCCC,0.178
9,GGAGCTTA,-0.0571
10,GGGCCTCA,-0.197
11,ACTTTATC,-0.0438
12,AAGACCCG,-0.094
13,AATAGGCT,-0.109
14,GGGATAAC,-0.108
15,CCGAGCGA,0.237
16,CAAATGCC,-0.27
17,CAGCGCCC,-0.294
18,CTAATTGC,0.101
19,GGGTCTCA,-0.376
20,GTCGGCAA,0.132
21,CCTGTTGC,-0.189
22,AAGCCTCA,-0.23

row,Sequence,PBM E-score
1,TCTCCTAA,-0.203
2,ACAACTAG,-0.0801
3,GGTTCCAA,-0.0872
4,AACAGCGC,-0.0228
5,ACGTAAAC,0.28
6,TACTTCGA,0.168
7,AAACCGTC,0.0185
8,AATGCTAT,-0.0459
9,GGGCTAGA,-0.086
10,ACTCCTCC,-0.161
11,TCGAAAAA,0.253
12,AGGCATGA,-0.294
13,GATCTCCA,-0.188
14,ACTCTTAG,-0.239
15,GATATCGA,0.0707
16,ATCCGCCA,-0.0437
17,GAACCAAC,0.0239
18,ACGTTCAT,0.157
19,AAGAATCT,-0.234
20,GGGCCAGA,-0.231
21,GACACCCA,-0.171
22,GGCTTCCC,-0.255

row,Sequence,PBM E-score
1,AGGTCGAT,0.0332
2,GATACGAC,0.464
3,GAACAGGA,-0.145
4,ATGTCTAA,-0.194
5,AGTGATAC,0.129
6,CAAGTTGC,0.0504
7,CCTCCACA,-0.147
8,GTGCCTTA,-0.241
9,GTTTAACA,0.205
10,AGTACCTC,-0.19
11,CAAACGCC,-0.0203
12,ACGTTAGA,0.0552
13,CAGACGAC,0.05
14,AAGTCACA,-0.196
15,CGCCGTTA,0.196
16,GGTTCCCA,-0.173
17,GGAATGAC,-0.162
18,ATTGGAGC,-0.141
19,AAATCAGT,0.0103
20,GTCACGAC,0.0452
21,ATAACCAC,0.0979
22,CCCAACAG,-0.172

row,Sequence,PBM E-score
1,ACCGCAGG,-0.0892
2,AACTTCTT,0.0135
3,CATGTGAC,-0.129
4,AACATAGA,-0.137
5,ACGCGAAT,0.246
6,GGACTAGA,-0.2
7,CGCAAGCA,-0.0331
8,CGCCCTCA,-0.154
9,ACATGTAT,0.0328
10,CTTAACCA,-0.201
11,ATGAAGGC,-0.102
12,AGATGACC,-0.239
13,TAAACGAA,0.488
14,TATTAACA,0.171
15,AGAAGTGG,-0.134
16,CACGATGG,0.0647
17,GCACCTAA,-0.0119
18,AGTCGGTG,-0.16
19,AATGCGAG,0.275
20,ACCATTAT,-0.138
